Results: the supplement of paper PMC9174493
The other results are listed elsewhere or left out. Single values of this set are uncertain. Values with irradiation are relative to irradiated vehicle.

These molecules were tested on A549-Dual (assay: NF-kB reporter (SEAP) activity, viability-corrected, relative to vehicle (fold change vs vehicle); higher = more activation of STING-IRF / NF-kB immune response reporter). Settings: 10 µM; irradiation: none.
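Further: viability correction based on the alamar blue assay, with concentrations leaving 10% survival or less dropped.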

Structure (SMILES)	NF-kB reporter
CC1=C(C(=O)OC(C)C)C(c2cccc([N+](=O)[O-])c2)C(C(=O)OC2CN(C(c3ccccc3)c3ccccc3)C2)=C(N)N1 (stereo not given) [Azelnidipine]	1.37
O=C(OC1CN2CCC1CC2)N1CCc2ccccc2C1c1ccccc1 (stereo not given) [Solifenacin]	0.761
CCOc1nc2cccc(C(=O)O)c2n1Cc1ccc(-c2ccccc2-c2nn[nH]n2)cc1 [Candesartan]	0.824
Clc1ccc(CCC(Cn2ccnc2)Sc2c(Cl)cccc2Cl)cc1 (stereo not given) [Butoconazole]	0.729
CC1COc2c(C3(N)CC3)c(F)cc3c(=O)c(C(=O)O)cn1c23.CS(=O)(=O)O (stereo not given) [Pazufloxacin mesylate]	0.953
CC(COc1ccccc1)N(CCCl)Cc1ccccc1.Cl (stereo not given) [Phenoxybenzamine HCl]	0.959
COc1cc(NC(C)CCCN)c2ncccc2c1.O=P(O)(O)O.O=P(O)(O)O (stereo not given) [Primaquine Diphosphate]	1.48
CNCC(O)C(O)C(O)C(O)CO (stereo not given) [Meglumine]	0.676
COc1ccccc1OCC(O)COC(N)=O (stereo not given) [Methocarbamol]	1.28
CC(C)N=c1cc2n(-c3ccc(Cl)cc3)c3ccccc3nc-2cc1Nc1ccc(Cl)cc1 [Clofazimine]	1.03
C[N+]1(C)C2CC(OC(=O)C(O)(c3cccs3)c3cccs3)CC1C1OC12.O.[Br-] (stereo not given) [Tiotropium Bromide hydrate]	1.12
OC1COC(O)C(O)C1O (stereo not drawn) [L(+)-Arabinose]	0.73
O=C(O)C(=O)c1ccccc1 [Phenylglyoxylic acid]	0.717
O=C(O)c1c[nH]c2ccccc12 [Indole-3-carboxylic acid]	0.561
N=C(N)c1ccc(OCCCCCOc2ccc(C(=N)N)cc2)cc1.O=S(=O)(O)CCO.O=S(=O)(O)CCO [Pentamidine isethionate]	0.542
C=CC1=C(C(=O)O)N2C(=O)C(NC(=O)/C(=N\OCC(=O)O)c3csc(N)n3)C2SC1 (stereo not given) [Cefixime]	0.902
O=c1[nH]c(=O)n(C2CC(O)C(CO)O2)cc1/C=C/Br (stereo not given) [Brivudine]	1.09
CC1=CC(=O)C2CC1C2(C)C (single isomer, unassigned; (-)) [(-)-Verbenone]	0.656

Structure (SMILES)	NF-kB reporter
OB1OCc2cc(F)ccc21 [Tavaborole (AN-2690)]	1.02
O=c1cc[nH]c(=S)[nH]1 [2-Thiouracil]	0.829
CCOCCn1c(N2CCCN(C)CC2)nc2ccccc21.O=C(O)/C=C/C(=O)O.O=C(O)/C=C/C(=O)O [Emedastine Difumarate]	1.56
CCCS(=O)c1ccc2nc(NC(=O)OC)[nH]c2c1 (stereo not given) [Albendazole Oxide]	1.36
CC(Cc1ccc(O)c(O)c1)C(C)Cc1ccc(O)c(O)c1 (stereo not given) [Nordihydroguaiaretic acid (NDGA)]	0.999
COc1cc2c(cc1OC)C1Cc3ccc(OC)c(OC)c3CN1CC2.Cl (stereo not given) [Tetrahydropalmatine hydrochloride]	1.32
C#CC1(O)CCC2C3CCC4=CC(=O)CCC4C3CCC21CC (stereo not given) [Levonorgestrel]	0.775
CCCCC(=O)N(Cc1ccc(-c2ccccc2-c2nn[nH]n2)cc1)C(C(=O)O)C(C)C (stereo not given) [Valsartan]	1.12
OCC(O)COc1ccc(Cl)cc1 (stereo not given) [Chlorphenesin]	0.749
CCCNC(C)C(=O)Nc1ccccc1C.Cl (stereo not given) [Prilocaine hydrochloride]	1.27
C[n+]1ccccc1/C=N/O.[Cl-] [Pralidoxime chloride]	0.755
O=c1[nH]c2ccccc2n1CCN1CCN(c2cccc(C(F)(F)F)c2)CC1 [Flibanserin]	0.719
O=C1c2cccc(O)c2C(=O)c2c(O)cccc21 [Danthron]	0.988
CC12CCC(C1)C(C)(C)C2=O (single isomer, unassigned; (-)) [(-)-Fenchone]	0.486
C[N+](C)(C)CCO.Cn1c(=O)c2[n-]cnc2n(C)c1=O [Oxtriphylline]	0.987
COC(=O)C1CC2=CC(=O)CCC2(C)C23OC2CC2(C)C(CCC24CCC(=O)O4)C13 (stereo not given) [Eplerenone]	1.04
O=C(NCCO[N+](=O)[O-])c1cccnc1 [Nicorandil]	1.03
